Test [1] deals with T1, Vps8-TAP (full-length Vps8, C-terminal TAP tag) (yeast (genomic locus of BY4741/BY4733 strains)) (UniProt P39702).
T1 sequence: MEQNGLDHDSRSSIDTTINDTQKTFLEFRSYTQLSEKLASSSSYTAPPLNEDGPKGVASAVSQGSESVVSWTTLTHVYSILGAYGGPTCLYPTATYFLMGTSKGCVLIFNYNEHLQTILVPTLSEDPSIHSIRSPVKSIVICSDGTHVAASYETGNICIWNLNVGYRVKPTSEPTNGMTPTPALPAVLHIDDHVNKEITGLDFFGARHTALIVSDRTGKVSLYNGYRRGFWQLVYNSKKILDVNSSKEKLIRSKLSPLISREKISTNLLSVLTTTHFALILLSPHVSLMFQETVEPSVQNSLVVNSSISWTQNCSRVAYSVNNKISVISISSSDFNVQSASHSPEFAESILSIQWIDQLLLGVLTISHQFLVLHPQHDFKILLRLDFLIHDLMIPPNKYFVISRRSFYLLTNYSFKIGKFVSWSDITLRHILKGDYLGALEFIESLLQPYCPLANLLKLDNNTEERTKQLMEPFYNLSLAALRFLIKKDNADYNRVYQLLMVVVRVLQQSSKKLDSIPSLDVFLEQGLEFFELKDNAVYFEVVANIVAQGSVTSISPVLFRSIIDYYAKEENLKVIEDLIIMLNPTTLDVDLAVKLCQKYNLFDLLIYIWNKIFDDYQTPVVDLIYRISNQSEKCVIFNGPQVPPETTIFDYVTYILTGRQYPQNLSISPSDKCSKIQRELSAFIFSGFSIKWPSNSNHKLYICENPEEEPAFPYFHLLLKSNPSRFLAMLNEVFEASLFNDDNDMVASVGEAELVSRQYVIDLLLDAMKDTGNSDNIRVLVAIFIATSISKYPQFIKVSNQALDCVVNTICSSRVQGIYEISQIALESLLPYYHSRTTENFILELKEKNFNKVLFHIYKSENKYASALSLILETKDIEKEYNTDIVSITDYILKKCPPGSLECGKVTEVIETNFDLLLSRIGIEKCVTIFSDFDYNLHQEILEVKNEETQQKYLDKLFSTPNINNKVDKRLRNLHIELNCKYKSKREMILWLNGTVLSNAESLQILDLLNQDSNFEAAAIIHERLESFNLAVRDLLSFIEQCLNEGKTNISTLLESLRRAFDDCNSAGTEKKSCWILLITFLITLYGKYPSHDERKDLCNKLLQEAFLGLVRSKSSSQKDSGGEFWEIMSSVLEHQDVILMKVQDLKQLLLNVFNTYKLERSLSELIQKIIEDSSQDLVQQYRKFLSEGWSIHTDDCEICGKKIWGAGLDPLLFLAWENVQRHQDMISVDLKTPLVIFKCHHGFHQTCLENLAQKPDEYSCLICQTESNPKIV
In words: co-IP; small-scale TAP purification: C-terminally TAP-tagged Vps8 or Vps3 (full-length or truncated) captured from yeast lysate (50 mM HEPES/KOH pH 7.4, 300 mM NaCl, 0.15% NP-40, 2 mM MgCl2, 1 mM DTT) on IgG beads, 1.5 h at 4°C; eluted with glycine pH 2.5 or TEV protease; Western blot with anti-Cbp, anti-HA, anti-Vps11; also with overproduced Vps8ΔN and from vps21Δ and vps21Δ ypt52Δ ypt53Δ ypt7Δ strains.

The chains behind the UniProt entries cited, without tags or fusion partners.
UniProt P12868: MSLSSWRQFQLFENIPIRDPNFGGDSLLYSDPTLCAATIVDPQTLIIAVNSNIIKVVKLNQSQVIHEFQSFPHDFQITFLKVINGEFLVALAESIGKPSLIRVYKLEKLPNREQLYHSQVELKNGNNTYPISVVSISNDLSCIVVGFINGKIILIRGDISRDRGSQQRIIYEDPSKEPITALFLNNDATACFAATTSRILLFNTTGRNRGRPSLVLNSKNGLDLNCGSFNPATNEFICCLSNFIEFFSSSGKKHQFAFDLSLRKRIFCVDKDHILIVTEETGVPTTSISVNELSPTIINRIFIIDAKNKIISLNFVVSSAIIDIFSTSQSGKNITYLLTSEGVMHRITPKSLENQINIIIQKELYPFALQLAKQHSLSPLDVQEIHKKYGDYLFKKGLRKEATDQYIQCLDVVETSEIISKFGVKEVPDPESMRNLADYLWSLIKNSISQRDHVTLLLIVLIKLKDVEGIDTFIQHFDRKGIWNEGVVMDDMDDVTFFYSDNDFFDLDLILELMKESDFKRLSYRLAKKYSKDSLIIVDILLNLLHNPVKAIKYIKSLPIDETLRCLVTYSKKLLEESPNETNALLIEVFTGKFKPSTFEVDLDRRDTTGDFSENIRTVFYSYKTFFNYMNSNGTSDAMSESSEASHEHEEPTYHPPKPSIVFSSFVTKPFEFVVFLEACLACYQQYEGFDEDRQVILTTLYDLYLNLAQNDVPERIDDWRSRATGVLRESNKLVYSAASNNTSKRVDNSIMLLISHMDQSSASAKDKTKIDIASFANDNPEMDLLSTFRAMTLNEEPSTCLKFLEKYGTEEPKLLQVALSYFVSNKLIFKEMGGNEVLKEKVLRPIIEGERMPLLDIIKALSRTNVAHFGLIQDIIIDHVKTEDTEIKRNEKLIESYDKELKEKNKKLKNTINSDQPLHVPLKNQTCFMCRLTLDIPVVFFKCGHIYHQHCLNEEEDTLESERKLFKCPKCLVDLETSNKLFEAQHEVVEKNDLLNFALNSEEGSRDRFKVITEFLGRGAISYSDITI

The target in test [2] is T2, Vps8ΔN-TAP (C-terminal domain of Vps8, from residue 451, C-terminal TAP tag) (yeast (genomic locus of BY4741/BY4733 strains)) (UniProt P39702).
T2 sequence: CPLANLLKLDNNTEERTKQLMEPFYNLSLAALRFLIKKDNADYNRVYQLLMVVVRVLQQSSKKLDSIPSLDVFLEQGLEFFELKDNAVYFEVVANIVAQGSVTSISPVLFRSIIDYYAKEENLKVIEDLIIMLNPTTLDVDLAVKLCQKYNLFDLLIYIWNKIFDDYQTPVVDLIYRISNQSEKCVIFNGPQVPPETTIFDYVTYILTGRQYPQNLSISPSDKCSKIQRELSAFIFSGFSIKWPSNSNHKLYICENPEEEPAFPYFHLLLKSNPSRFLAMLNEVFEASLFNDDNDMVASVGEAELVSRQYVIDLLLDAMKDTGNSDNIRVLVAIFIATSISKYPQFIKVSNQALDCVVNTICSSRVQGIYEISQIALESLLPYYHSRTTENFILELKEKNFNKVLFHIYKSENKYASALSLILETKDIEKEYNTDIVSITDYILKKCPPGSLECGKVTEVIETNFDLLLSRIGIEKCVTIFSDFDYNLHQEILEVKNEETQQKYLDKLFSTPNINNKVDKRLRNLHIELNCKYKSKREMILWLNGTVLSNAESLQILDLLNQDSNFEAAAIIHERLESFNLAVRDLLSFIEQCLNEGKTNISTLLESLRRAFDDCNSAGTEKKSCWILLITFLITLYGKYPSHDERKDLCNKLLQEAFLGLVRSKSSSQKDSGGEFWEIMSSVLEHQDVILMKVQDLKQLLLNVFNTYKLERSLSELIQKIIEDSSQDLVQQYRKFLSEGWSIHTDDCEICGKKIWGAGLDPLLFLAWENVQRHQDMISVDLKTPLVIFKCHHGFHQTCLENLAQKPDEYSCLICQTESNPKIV
The description is as above.

Results are given in words; binding and its absence hold for the method and conditions named. Binding seen in cells or lysates may run through a third protein. Some entries that bind do so weakly or less than the wild type. Where a sequence is shown, tags or fusion partners need not be part of it.

With Vps11 (from UniProt P12868 1-1029), the binding entry in test [1] and in test [2] was “binds” throughout.

The record behind these values is article PMC3688683, “The N-Terminal Domains of Vps3 and Vps8 Are Critical for Localization and Function of the CORVET Tethering Complex on Endosomes” (PLoS ONE, 2013).
